Source: PMC11451635, “A Broad Spectrum Lasso Peptide Antibiotic Targeting the Bacterial Ribosome” (Research Square, 2024)
Converted amounts (≈) assume the structure as drawn. Like-named read-outs stand apart in the source and are kept apart here. Where a SMILES comes first, the peptide text is derived from it. Bridges are numbered along the chain shown (N, C = ends). Where no end group is shown, it is not given here.

What was measured:
RNA polymerase = details: cited from earlier work
[1] = system: Mycobacterium tuberculosis Ra; details: column MHB; method: Middlebrook 7H9 with 10% OADC, read after two to three days
E coli BW25113 mcr-1 = details: MHB, 37°C, 18–22 h

microcin J25 (GGAGHVPEYFVGIGTPISFYG; not fully specified (bridges); UniProt Q9X2V7 38-58, looked up)
Block of RNA polymerase (RNA polymerase): block the action of RNA polymerase

capistruin (GTPGFQTPDARVISRFGFN; lactam N-9 (inferred); UniProt P0DQM5 29-47, looked up)
Block of RNA polymerase (RNA polymerase; active against Gram-negative bacteria): block the action of RNA polymerase

CC(C)[C@H](NC(=O)CNC(=O)[C@H](CCCNC(=N)N)NC(=O)CNC(=O)[C@H](Cc1ccccc1)NC(=O)[C@H](CCCCN)NC(=O)CNC(=O)[C@@H]1CC(=O)N[C@@H](CO)C(=O)N[C@@H](CCCCN)C(=O)N[C@@H](CCCCN)C(=O)N[C@@H](CO)C(=O)N[C@@H](CCCCN)C(=O)N2CCC[C@H]2C(=O)NCC(=O)N1)C(=O)N[C@@H](CCCCN)C(=O)N[C@@H](CCCNC(=N)N)C(=O)NCC(=O)O [LAR, lariocidin] (SKKSKPGDGKFGRGVKRG-OH; lactam N-8)
MIC [1]: 4 to 8 µg/mL
MIC (efflux impaired E. coli): 2 to 4 µg/mL
MIC (E coli BW25113 mcr-1): 64 µg/mL (≈ 34.2 µM)
